From PubChem BioAssay AID1963576 (National Center for Advancing Translational Sciences (NCATS), 2024)
Screen size: about 46,000 compounds; about 60 (0.1%) were called active. Not shown: some 3% with an inconclusive outcome. Calls come from the whole dose curve; as a rule, active = well fitted inhibition curve with a large enough effect; inconclusive = small, poorly fitted or top-dose-only effect; inactive = no such curve, though single readings can be large or run the other way. This is one part of the list.

Experiment: Primary qHTS assay for Inhibitors of ovarian cancer metastasis using an organotypic tumor microenvironment (TME) model. Note: nearly all actives have a fitted effect of over 65% in size.
Settings: SKOV3ip1-GFP adhesion/invasion on 3D omental model, fluorescence; series mostly up to 45.8 µM; activity change, negative = inhibition: at the top concentration
From the text: PI: Ernst Lengyel MD., Ph.D. Department of Obstetrics and Gynecology, Section of Gynecologic Oncology University of Chicago Medicine, Chicago, Illinois. The tumor microenvironment (TME) is a key determinant of metastatic efficiency. We performed a quantitative high-throughput screen (qHTS) of diverse medicinal chemistry tractable scaffolds (44,420 compounds) and pharmacologically active small molecules (386 compounds) using a layered organotypic, robust assay representing the ovarian cancer metastatic TME. This 3D model contains primary human mesothelial cells, fibroblasts, and extracellular matrix, to which fluorescently labeled ovarian cancer cells are added. Initially, 100 compounds inhibiting ovarian cancer adhesion/invasion to the 3D model in a dose-dependent manner were identified. Of those, eight compounds were confirmed active in five high-grade serous ovarian cancer cell lines and were further validated in secondary in vitro and in vivo biological assays. […] Specifically, NCGC00117362 and PP-121 inhibited ovarian cancer adhesion, invasion, and proliferation, whereas milciclib inhibited ovarian cancer invasion and proliferation. […] To evaluate the clinical potential of NCGC00117362, structure - activity relationship studies were performed. […] The three compounds identified have promise as therapeutics for prevention and treatment of ovarian cancer metastasis.
PROTOCOL TABLE (as described by Inglese J, Shamu CE and Guy RK. 2007) SEQUENCE No. (e.g., 1, 2, 3, etc.); […] (e.g., Cells, Incubation, Reagent, etc.); VALUE; DESCRIPTION. 1; Cells; 4 uL; primary human omental fibroblast, black, clear bottom, low base, 1536-well Aurora assay plate. 2; Incubation; 48 hr; 37C. 3; Cells; 3 uL; 1,200 SKOV3ip1-GFP cells. 4; Compounds; 23nL; acoustic dispenser. 5; Incubation; 2 hr; room temperature. 6; Incubation; 16 hr; 37C. 7; Wash; 5 uL; 1x PBS. 8; Fixing; 5 uL; 4% paraformaldehyde (PFA). 9; Incubation; 15 min; room temperature 10; Wash, 5 uL; 1x PBS. 11; Detection; Fluorescence, excitation filter 488 nm, emission filter 509 nm. NOTES (numbers refer to Sequence numbers above) 1. For the 1,536-well format, 40 primary human omental fibroblasts and 400 mesothelial cells were seeded with 0.02 µg fibronectin and 0.02 µg collagen type I in 4 µL of growth media (2.3 mm2; Supplementary Fig. S1A). 2. Assay plates were incubated for 48 hours at 37 C. 3. After incubation, 1,200 SKOV3ip1-GFP were seeded in 3 µL of serum-free media (growth media minus FBS) on top of primary human omental cells. 4. Compounds or controls were added to each well immediately after the addition of the cancer cells. Compounds were screened in four doses (0.36-46 µmol/L), and the plates contained the positive control (Tomatine) in eight doses (0.035-75 µmol/L) and DMSO (equal volume controls) 5 - 6. The plates were incubated at room temperature for 2 hours and then at 37 degrees C for 16 hours. 7 - 10. Following incubation, the media were aspirated and each well washed with PBS (5 µL) and then fixed with 4% paraformaldehyde (PFA; 5 µL). After 15 minutes, the PFA solution was aspirated, PBS (5 µL) was added. 11. The number of GFP-labeled cells analyzed using a fluorescent cytometer TTP LabTech Acumen eX3 using 488 nm excitation filter and 509 nm emission filter. Data was normalized to the DMSO treated for negative and Tomatine treated wells for positive control. REFERENCES: Inglese J, Shamu CE and Guy RK, Reporting data from high throughput screening of small molecule libraries, Nature Chemical Biology, 2007, 3(8): 438-441. doi.org/10.1038/nchembio0807-438. Yasgar A, Shinn P, Jadhav A, Auld DS, Michael S, Zheng W, Austin CP, Inglese J and Simeonov A, Compound Management for Quantitative High-Throughput Screening. J. Assoc. Lab. Auto., 2008, 13: 79-89. doi: 10.1016/j.jala.2007.12.004.

outcome, inactive:
COc1ccc(Nc2ncc(C(=O)Nc3cc(C)ccc3OC)c3ccccc23)cc1
Cc1ccc(-n2nc(C)c3c(C)cc(=O)n(CC(=O)NCc4ccc(OC(C)C)cc4)c32)cc1
Fc1ccc(-n2ncc3c(Nc4ccc(Oc5ccccc5)cc4)ncnc32)cc1
Cc1ccc(OCC(=O)Nc2c(Cl)ccc3nsnc23)cc1C
COc1ccc(-c2noc(C(C)NC(=O)c3ccco3)n2)cc1 (stereo unspecified)
Cn1c(C(=O)NCc2ccc(Cl)cc2)cc2c(=O)n(C)c3ccccc3c21
COc1ccc(NC(=O)CCc2c(C)nc3c(-c4ccccc4)c(C)nn3c2C)cc1Cl
Cc1ccc2c(c1)c1c(c(=O)n(-c3ccccc3C)c(=O)n1Cc1ccccc1F)n2C
Cc1ccc(CNC(=O)C2CCN(c3nc4ccc(C)cc4[nH]3)CC2)cc1
COc1ccc(CNC(=O)c2ccc(Sc3ccc(Cl)cc3)c(NC(C)=O)c2)c(OC)c1
CCOC(=O)c1nnn(C(CC)C(=O)Nc2c(C)cccc2C)c1C(=O)OCC (stereo unspecified)
CCc1ccccc1NC(=O)CCCN1C(=O)COc2ccc(C)cc21
Cc1ccc(NC(=O)N2CCN(c3nnc(C)c4c(C)n(-c5ccccc5)nc34)CC2)c(Cl)c1
CCCCN(CC)c1ncnc2c1sc1nc(N3CCOCC3)c3c(c12)CCCC3
CC(C)c1ccc(Nc2cc(C(=O)NCCc3ccccc3)c3ccccc3n2)cc1

Activity change, negative = inhibition, inactive:
COc1ccc(F)cc1NC(=O)C1CCN(c2nc(-c3ccc(OC)c(OC)c3)no2)CC1 -12.9%
FC(F)(F)c1ccc(C2=Nc3ccccc3NC(c3cccs3)=N2)cc1 -16.8%
Cc1cccc2c1-c1sc(C(=O)NCCCN3CCN(c4cccc(Cl)c4)CC3)cc1CO2 -1.38%
Cc1ccc(NC(=O)c2ccc(=O)n(CC(=O)Nc3cc(C)cc(C)c3)n2)cc1 4.96%
Cc1ccc2nc(NCCN)c3ncc(C)n3c2c1 41.7%
CC(=O)c1cccc(Nc2c3c(nc4nc(-c5cccs5)nn24)CCCC3)c1 4.27%
CCCN1CCN(CCCNC(=O)c2cnn(-c3ccc(C)cc3)c2-n2cccc2)CC1 -0.45%
COc1cc(C(c2c(C)[nH][nH]c2=O)c2c(C)[nH][nH]c2=O)ccc1OC(=O)c1ccccc1F 0.173%
CC(=O)Nc1cccc(-c2nnc(SCC(=O)c3cc([N+](=O)[O-])ccc3Br)o2)c1 -0.835%
Cc1c(NC(=O)OC[C@@H]2COCCN2)cn2ncnc(Nc3ccc4c(cnn4Cc4cccc(F)c4)c3)c12 -15.3%
CCCC(=O)Nc1cccc(-c2nc3cc(C)c(C)cc3o2)c1C 10.1%
COC(=O)c1ccc2oc(=O)c(S(=O)(=O)c3ccc(C)cc3)cc2c1 -2.72%
CC(=O)Nc1ccc(NC(=O)CSc2nnc3c4cc(Br)ccc4n(C)c3n2)cc1 -7.77%
O=C(CCc1ccc(O)cc1)c1c(O)cc(O)cc1O[C@@H]1O[C@H](CO)[C@H](O)[C@H](O)[C@H]1O -15.5%
COc1cc(OC)c(NC(=O)c2cnc(N3CCCC3)nc2C)cc1Cl 0.796%
CCSc1ncc(Cl)c(C(=O)Nc2sc(C(C)=O)c(C)c2C(=O)OC)n1 2.19%
Cc1ccc2c(c1)c1c(c(=O)n(-c3cccc(Cl)c3)c(=O)n1C)n2C -8.42%
COc1ccc(C(=O)c2oc3ccccc3c2NC(=O)c2nc(SC)ncc2Cl)cc1Cl -4.39%
O=C1CN(C(=O)COc2ccc(Cl)cc2Cl)C(c2ccc(F)cc2)c2cc(F)ccc2N1 (stereo unspecified) 7.44%
CCOC(=O)c1c(NC(=O)c2cc3nc(-c4ccc(OC)cc4)cc(C(F)(F)F)n3n2)sc(C)c1C -6.78%
CCc1cccc(NC(=O)c2c(C)oc3ncnc(N4CCCCC4)c23)c1 15.6%
CCN(CC)C(=O)CSc1nnc2[nH]c(=O)cc(C)n12 4.07%
CC(C)c1ccc(Nc2cc(C(=O)NCc3cccs3)c3ccccc3n2)cc1 -24.3%
CCOC(=O)N1CCc2c(sc(NCc3cccs3)c2C(=O)Nc2cc(OC)ccc2OC)C1 7.61%
CCOc1ccc2nc(N3CCCC(C(=O)NCc4ccc(OC)cc4)C3)sc2c1 (stereo unspecified) -7.69%
CCNc1nc(Oc2ccc(OCC(=O)OC)nn2)nc(N2CCOCC2)n1 2.6%
CCOc1ccc(-c2cccc(NS(=O)(=O)c3ccc(Cl)s3)c2)nn1 12.3%
Cc1ccc(S(=O)(=O)c2nc(-c3ccccc3)oc2N2CCCCCC2)cc1 -2.06%
COc1ccc2cc(-c3cn4c(n3)sc3cc(F)ccc34)c(=O)oc2c1 -8.03%
Cc1cccc(OCC(=O)N(Cc2cccc(Cl)c2)Cc2ccco2)c1C -23.5%
COc1cccc(C(=O)NCC(c2ccc(N(C)C)cc2)N2CCOCC2)c1OC (stereo unspecified) 0.88%
Cc1ccccc1CSc1nc(-c2ccccc2)nc2c1Cc1c(CO)cnc(C)c1O2 8.45%
COc1ccc(/C=C/c2onc(C)c2S(=O)(=O)N2CCC(C(=O)N3CCC(C)CC3)CC2)cc1 -22.1%
CC1CCN(S(=O)(=O)c2ccc3c(c2)N(CC(=O)N2CCN(c4ccc(Cl)cc4)CC2)C(=O)CO3)CC1 31.7%
CCOc1ccc(CCNC(=O)CCc2cn(Cc3ccc(C)cc3)c3ccccc23)cc1 2.48%
COc1cccc(C2=NN(C(C)=O)C(c3cn(-c4ccccc4)nc3-c3cccs3)C2)c1 (stereo unspecified) -5.21%
CCCCNC(=O)CCn1c(=O)c2ccccc2n(Cc2cc(C)ccc2C)c1=O -2.46%
CCOC(=O)c1c(S(=O)(=O)N2CCCC(C(=O)Nc3cc(C)ccc3OC)C2)c(C)n(C)c1C (stereo unspecified) -0.581%
CC(C)CCNC(=O)N1CCN(S(=O)(=O)c2ccc3c(ccn3C)c2)CC1 -3.93%
CCCC(=O)Nc1nnc(SCc2cc(=O)c3cc(C)ccc3[nH]2)s1 -6.14%
O=C(c1ccc(CSc2nc3ccncc3n2Cc2ccccc2F)cc1)N1CCCCCC1 7.19%
COc1ccc2[nH]cc(CCNC(=O)Nc3ccc(F)cc3)c2c1 4.52%
Cc1ccc(C)c(N2CCN(C(=O)c3cc(S(=O)(=O)N4CCCCC4)cn3C)CC2)c1 -23.1%
CC(C[N+](C)(C)C)OC(N)=O (stereo unspecified) 1.76%
Cc1ccc(C)c(S(=O)(=O)c2nnn3c2nc(N2CCCC2)c2sccc23)c1 -1.84%
CCc1ccccc1N1CC(c2nc3ccccc3n2CC(C)C)CC1=O (stereo unspecified) 7.84%
